Laboratory results reported in the supplement of paper PMC3334620.
Whole data set: some 33,000 sequences, median “E-score (-0.5 to 0.5)” near -0.043, cut for the highest 2% near 0.37. The list shows a part of the results.

Target: T1, Upc2 (UniProt Q12151)
T1 sequence: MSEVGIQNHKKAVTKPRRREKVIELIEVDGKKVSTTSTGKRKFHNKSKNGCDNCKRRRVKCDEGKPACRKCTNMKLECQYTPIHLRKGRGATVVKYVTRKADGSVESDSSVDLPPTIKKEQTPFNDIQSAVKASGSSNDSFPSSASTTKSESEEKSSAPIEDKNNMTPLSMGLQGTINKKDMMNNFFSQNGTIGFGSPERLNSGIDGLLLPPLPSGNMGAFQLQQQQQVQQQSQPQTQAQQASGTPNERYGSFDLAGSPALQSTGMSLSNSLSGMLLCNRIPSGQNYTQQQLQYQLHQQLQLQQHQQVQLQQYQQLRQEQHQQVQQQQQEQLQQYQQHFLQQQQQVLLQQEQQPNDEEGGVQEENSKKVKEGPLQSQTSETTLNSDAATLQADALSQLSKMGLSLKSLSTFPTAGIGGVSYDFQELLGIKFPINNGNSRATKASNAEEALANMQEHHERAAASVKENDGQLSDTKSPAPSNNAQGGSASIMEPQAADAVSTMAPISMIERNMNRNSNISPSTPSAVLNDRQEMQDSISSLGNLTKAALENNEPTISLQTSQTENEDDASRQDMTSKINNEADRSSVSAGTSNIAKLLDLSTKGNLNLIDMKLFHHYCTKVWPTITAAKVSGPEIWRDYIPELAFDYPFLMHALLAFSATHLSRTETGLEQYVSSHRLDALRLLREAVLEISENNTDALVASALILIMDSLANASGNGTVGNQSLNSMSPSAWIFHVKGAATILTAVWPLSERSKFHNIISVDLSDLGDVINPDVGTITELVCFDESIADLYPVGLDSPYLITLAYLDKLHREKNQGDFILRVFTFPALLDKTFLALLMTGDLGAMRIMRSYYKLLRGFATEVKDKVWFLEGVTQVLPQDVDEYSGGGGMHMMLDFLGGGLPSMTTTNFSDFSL
Experiment: PBM E-score (8-mer binding enrichment) (E-score (-0.5 to 0.5)); higher = stronger / more preferred TF binding; most listed sequences are background and not binding sites
Details: protein concentration: 200 nM; construct: GST-full length
Procedure, shortened: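 Masliner-normalised scans of fluorescent anti-GST signal were the basis for scoring. That signal came from GST-tagged yeast transcription factors applied at about 100-200 nM to double-stranded universal all-10-mer Agilent arrays on fresh or once-stripped slides. Each ungapped eight-base word, pooled with its reverse complement, received an E-score from the Universal PBM Analysis Suite.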

| Sequence | PBM E-score |
| --- | --- |
| ACAATGCG | -0.0374 |
| ACAGTGTA | -0.07 |
| GAGTTGCC | -0.0855 |
| CCTATGAG | -0.28 |
| AAGACGTC | 0.0636 |
| AGATGACG | 0.0468 |
| AGAGCGAC | 0.11 |
| AAAAACGC | 0.0029 |
| ACCTGCAG | -0.0741 |
| AACTGTCA | -0.0819 |
| AGTTGCGA | 0.0264 |
| CATCTCGC | 0.131 |
| AGCTAGTC | 0.0126 |
| CCCTCGAG | -0.314 |
| AGAAGCAC | -0.126 |
| ATCTAACG | 0.117 |
| GGTGCTCA | -0.0527 |
| CGGACCGC | -0.0362 |
| AATCTAGA | -0.162 |
| ACCTAAGC | 0.125 |
| CGGATACC | 0.0516 |
| AGATCAGA | -0.147 |
| CGTTCTCC | 0.127 |
| AGTAGGAC | -0.231 |
| TGCCACCA | -0.275 |

| Sequence | PBM E-score |
| --- | --- |
| ACGTTAAG | 0.245 |
| ACTGATAG | -0.1 |
| CAACTAAG | -0.0507 |
| GCTGCGCC | -0.253 |
| TTACGTAA | 0.246 |
| AGCCCTTC | -0.211 |
| CAGCTGCA | -0.347 |
| CAAGTCTC | -0.046 |
| ACGTCCAC | 0.0192 |
| GAACCAAA | -0.0318 |
| AGCATAAA | -0.0777 |
| AGCAGTCG | 0.102 |
| AAAGGTAT | 0.0203 |
| AGCCACCC | -0.128 |
| ACCGAAAT | 0.141 |
| AGCCGTAC | 0.346 |
| CGAGCATC | 0.166 |
| AGAACGAA | 0.376 |
| AGCCGACT | -0.0249 |
| TCTGGGCA | -0.31 |
| ACAAACAG | -0.0644 |
| GATAAGAA | 0.0708 |
| TGAAGACA | -0.064 |
| CGCGCCGA | 0.132 |
| CCCGGCCA | -0.361 |

| Sequence | PBM E-score |
| --- | --- |
| AACAAACA | -0.114 |
| GCCAACGA | 0.097 |
| AAATTTAG | 0.117 |
| CCGGAGCG | 0.131 |
| CAACGGGC | 0.00552 |
| CCTGCGTC | -0.28 |
| GATGTTCA | -0.334 |
| GACGGTCC | -0.273 |
| ACAAGTTG | -0.27 |
| GATTGTAA | 0.0554 |
| AAACGGAG | 0.34 |
| CAACTTAG | -0.0348 |
| CTGTTATA | 0.0553 |
| ACGACGAG | 0.367 |
| AAGCTATT | -0.0289 |
| ACTACGCT | -0.072 |
| TGCATCCA | -0.118 |
| TCAGGGCA | -0.0548 |
| CTACGCCA | -0.185 |
| CCGAAGTC | -0.00308 |
| GCACACCC | -0.00534 |
| GGTAAGCA | -0.0514 |
| ACGGGTTG | 0.226 |
| ATGGGCGC | -0.131 |
| TCTGTTAA | 0.0431 |

| Sequence | PBM E-score |
| --- | --- |
| AAACCCCT | -0.255 |
| ATTAGAAC | 0.0604 |
| ACATGAGA | -0.0843 |
| AGCACGCA | -0.103 |
| CAGCTACA | -0.084 |
| GCCTTGCC | -0.1 |
| GACTAAGC | 0.0106 |
| AATCTGAG | -0.137 |
| CTTTAAAA | 0.133 |
| GTGCCCAA | -0.281 |
| GAGTATAC | 0.315 |
| CAATACGA | 0.419 |
| ACGGTCTG | 0.126 |
| ACCATTCG | -0.00194 |
| CGTAAGTC | 0.187 |
| ATTGCAAA | 0.0233 |
| CGTTAATA | 0.344 |
| ATTAAGTA | 0.0513 |
| GGGACAAC | -0.0785 |
| CGGTTAGC | 0.195 |
| CAATCAGG | -0.196 |
| TATGACAA | 0.154 |
| GACTGTCC | -0.157 |
| CAAGCTTA | -0.0773 |
| GCCGGCCC | -0.28 |

| Sequence | PBM E-score |
| --- | --- |
| GGGAAAAC | 0.0239 |
| CGGTAGGA | -0.111 |
| GACCCTGC | -0.171 |
| AGGGATAA | 0.0539 |
| GCCGCCGA | -0.193 |
| ATTCACGA | 0.0672 |
| ATTTGTTG | -0.0255 |
| ACTAGTCT | -0.182 |
| AATGGAGA | -0.179 |
| AGGCAAAG | -0.164 |
| ATCTACAT | -0.131 |
| GGGTACGA | 0.465 |
| CCCACTTC | -0.0537 |
| ATATCCAG | -0.0684 |
| ATAATCCA | -0.102 |
| ATAGGGAG | -0.154 |
| CCGGTCGA | -0.0826 |
| AAACATAA | 0.0218 |
| TAAACATA | 0.0959 |
| GCACCGGC | 0.00077 |
| TACAAGTA | 0.0315 |
| CGTGCCGA | 0.0383 |
| ATCCTACG | 0.0454 |
| AGGGCGTA | 0.18 |
| AAGGAAAA | 0.0842 |

| Sequence | PBM E-score |
| --- | --- |
| CCAGTATC | -0.00249 |
| AAGGCGGC | -0.117 |
| AGGGCAAT | -0.0643 |
| ACAACGCG | 0.153 |
| GAGTGTAA | -0.28 |
| AGGGAACC | -0.104 |
| CGATCCTA | 0.0242 |
| GAGCTCGC | 0.138 |
| ACCAGATC | -0.215 |
| CATGACCA | -0.117 |
| ATAATCAT | 0.103 |
| CCCGTGCG | 0.0855 |
| GGCTAGCA | -0.374 |
| AACTTAAT | 0.0652 |
| ACATAGTA | 0.159 |
| AACATATG | 0.0351 |
| AGGGTAAA | -0.0326 |
| CCAATCAA | -0.0911 |
| CTATGCGA | 0.343 |
| CCTTGAGA | -0.252 |
| ACATCTGC | -0.301 |
| GGTGTCGA | -0.055 |
| CTGAGGAC | -0.17 |
| ATCGAACG | 0.201 |
| AAATATGA | -0.129 |

| Sequence | PBM E-score |
| --- | --- |
| ATGACGCC | -0.197 |
| ACCTACCT | -0.099 |
| CACGGTTC | -0.202 |
| CCGAATTA | 0.18 |
| AAGCACCC | -0.00602 |
| CATAATCC | -0.0711 |
| AGAACAGG | -0.165 |
| TTGTTAAA | 0.0604 |
| GCGCAGTA | 0.117 |
| GATCGTCC | -0.151 |
| ACTACGTC | -0.081 |
| ATATCTTC | 0.0681 |
| GAATGGGA | -0.131 |
| CTTGCCCC | -0.0736 |
| TACGAACA | 0.452 |
| AAGCCTCT | -0.269 |
| AAGGTGAG | -0.0732 |
| AAGCTGCA | -0.0546 |
| CAAATTGA | -0.147 |
| CCCGCAAC | 0.0194 |
| TAGATGAA | -0.0456 |
| ACGCTAGT | 0.107 |
